Molecules are shown by their SMILES. The campaign covered roughly 310,000 compounds. About 14,000 (4.5%) showed an effect of 50% or more. The effect is printed as a negative number. The list shows a part of the results.
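Also: peak tail current of the secondary pulse compared with the same well before compound.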

Chain of human ether-à-go-go-related gene (hERG) potassium channel (Q12809 whole entry, looked up): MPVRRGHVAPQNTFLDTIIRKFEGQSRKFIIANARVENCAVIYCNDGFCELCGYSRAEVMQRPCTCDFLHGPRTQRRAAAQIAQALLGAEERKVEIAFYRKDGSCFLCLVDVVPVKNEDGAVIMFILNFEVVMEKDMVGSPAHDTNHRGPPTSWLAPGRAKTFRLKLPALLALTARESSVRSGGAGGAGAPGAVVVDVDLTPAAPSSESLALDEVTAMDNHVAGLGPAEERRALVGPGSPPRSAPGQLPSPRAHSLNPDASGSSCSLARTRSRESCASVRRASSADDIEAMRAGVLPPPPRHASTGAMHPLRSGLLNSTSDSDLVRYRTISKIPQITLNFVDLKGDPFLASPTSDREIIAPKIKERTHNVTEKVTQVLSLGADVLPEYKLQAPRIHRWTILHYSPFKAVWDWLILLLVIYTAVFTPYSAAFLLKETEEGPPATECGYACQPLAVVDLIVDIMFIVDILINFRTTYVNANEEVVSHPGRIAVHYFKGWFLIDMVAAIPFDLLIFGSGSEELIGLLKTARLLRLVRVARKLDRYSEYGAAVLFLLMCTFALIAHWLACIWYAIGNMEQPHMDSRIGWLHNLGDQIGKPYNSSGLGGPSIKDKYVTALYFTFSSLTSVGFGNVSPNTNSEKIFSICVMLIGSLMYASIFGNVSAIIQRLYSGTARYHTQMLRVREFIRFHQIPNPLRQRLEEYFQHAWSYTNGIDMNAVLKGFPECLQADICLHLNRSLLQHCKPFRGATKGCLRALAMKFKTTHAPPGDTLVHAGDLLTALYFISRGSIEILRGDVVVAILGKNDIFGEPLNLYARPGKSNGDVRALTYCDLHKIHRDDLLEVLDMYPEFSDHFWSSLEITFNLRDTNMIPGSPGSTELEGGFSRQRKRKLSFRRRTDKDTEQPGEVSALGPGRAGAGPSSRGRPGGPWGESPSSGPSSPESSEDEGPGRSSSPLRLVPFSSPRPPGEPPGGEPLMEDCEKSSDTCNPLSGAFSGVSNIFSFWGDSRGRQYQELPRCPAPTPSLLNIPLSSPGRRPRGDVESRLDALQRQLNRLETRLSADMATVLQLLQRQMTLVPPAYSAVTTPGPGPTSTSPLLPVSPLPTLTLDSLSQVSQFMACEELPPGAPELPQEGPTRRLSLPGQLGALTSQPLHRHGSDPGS

This experiment concerns the target human ether-à-go-go-related gene (hERG) potassium channel (human, UniProt Q12809). Description: primary screen, population patch clamp on CHO cells stably expressing hERG.
`COc1ccc(-c2cc(C)no2)cc1S(=O)(=O)Nc1ccc(NC(C)=O)cc1`: the “hERG current change (%, negative = inhibition) at 10uM” value is 14.7%.
For the compound `O=C(CCSCCc1ccccn1)Nc1c(F)cc(F)cc1Br`, the “hERG current change (%, negative = inhibition) at 10uM” value was 8.22%.
With `O=C1CCCC2=C1C1(CCCC1)N=C(Nc1nc3ccccc3s1)N2` the figure was -7.12%; with `COc1ccc(NC(=O)CCn2cc(C)c3ccccc32)cc1`, 15.5%.
As for `O=C1CC(c2ccco2)Cc2c1cnn2-c1nc2ccccc2s1` (centres unmarked), the “hERG current change (%, negative = inhibition) at 10uM” value is recorded as 0.542%.
In the case of `COCCNC(=O)C(=O)NNC(=O)c1ccccc1OC` it was 16.2%.
With `C(=C\c1nnc(-c2cccs2)o1)/c1ccccc1` the figure was -9.22%.
As for `CC1(C)CC(=O)c2cnc(N3CCc4ccccc4C3)nc2C1`, the “hERG current change (%, negative = inhibition) at 10uM” value is on record as 7.48%.
On to `Brc1ccc(OCCn2ccnc2)cc1`, for which the “hERG current change (%, negative = inhibition) at 10uM” value was -4.26%.
With `COc1cccc(N2CCN(CC(=O)Nc3ccccc3C(=O)NCCc3ccccc3)CC2)c1` the figure was 89.9%.
In the case of `Cn1cc(/C=C2\SC(=S)N(NC(=O)c3ccccc3)C2=O)c2ccccc21` it was 10.6%; in that of `Cc1nn(C(C)C(=O)O)c(=O)c2c1sc1ccccc12` (centres unmarked), 8.68%; in that of `COc1ccc(S(=O)(=O)N2CCN(CC3CC=CCC3)CC2)cc1` (centres unmarked), -24.7%.
With `OC1(c2ccc(Cl)cc2)CCN(Cc2nc(-c3cnccn3)no2)CC1`, the “hERG current change (%, negative = inhibition) at 10uM” value is given as -1.35%.
In the case of `Cc1ccc(NC(=O)c2ccccc2OCc2ccc([N+](=O)[O-])cc2)nc1` it was -0.0291%; in that of `Cc1ccc(NC(=O)Cc2c(Cl)cccc2Cl)cc1S(=O)(=O)N(C)C`, 18.1%; in that of `CC(C)(C)NC(=O)CN(Cc1ccc2c(c1)OCO2)C(=O)CNS(=O)(=O)c1ccccc1`, 15.8%.
With `CC(C)Oc1ccc(S(=O)(=O)N2CCOCC2)cc1NC(=O)Cc1c(F)cccc1Cl` the figure was 17.7%; with `CS(=O)(=O)N1CCN(c2ccc([N+](=O)[O-])c(SCc3ccco3)c2)CC1`, -7.13%; with `Cn1c(CSc2nc3ccc(Br)cc3[nH]2)nc2ccccc21`, -6.66%.
In the case of `Oc1ccc(Cl)cc1-c1cc(C(F)(F)C(F)F)nc(-c2ccccc2)n1`, the “hERG current change (%, negative = inhibition) at 10uM” value was 6.07%.
In the case of `CCOc1ccc(N2CC(C(=O)Nc3cccc(S(=O)(=O)N4CCCC4)c3)CC2=O)cc1` (centres unmarked), the “hERG current change (%, negative = inhibition) at 10uM” value is -24.8%.
In the case of `CCc1ccc2c(c1)cc(C)c1nnc(SCC(=O)Nc3cc(OC)c(OC)cc3C(=O)O)n12` it was 5.98%.
With `COc1ccc(NC(=O)c2ccc3c(=O)n(Cc4ccco4)c(=S)[nH]c3c2)c(OC)c1` the figure was 5.49%; with `Cc1ccc(N=Nc2c(N)nn3c(N)c(C#N)c(C)nc23)cc1`, 15.3%.
With `COc1ccc(OC)c(C2NC(=O)N(C)C(C)=C2C(=O)OCc2ccccc2)c1` (centres unmarked) the figure was -8.64%; with `COCCn1c(C)cc(/C=N/NC(=O)c2cccnc2)c1C`, 41.5%; with `CCN(CC)C(=O)Nc1ccccc1C`, 16.9%.
In the case of `COc1ccc(C(=O)COC(=O)Cn2cnc3ccccc3c2=O)c(OC)c1`, the “hERG current change (%, negative = inhibition) at 10uM” value is recorded as -11.2%.
In the case of `O=C(O)CC1(CC(=O)NCc2ccncc2)CCCCC1` it was 4.85%; in that of `CCOCCCNCc1cc(Cl)cc(Cl)c1OCC.Cl`, -32%; in that of `CCOC(=O)Cn1cc(/C=N/NC(=O)CC#N)c2ccccc21`, 10.4%.
In the case of `Cc1c(CN2CC[C@@H](N3CCN(c4ccccn4)CC3)[C@H](O)C2)[nH]c2ccc(F)cc12` it was -60.9%.
With `Cc1nc(SCC(=O)NC(=O)NC(C)C)nc(C)c1C` the figure was 17.4%; with `COc1ccc(CCNC(=O)C2CCC(=O)N(C3CC3)C2)c(OC)c1` (centres unmarked), 7.03%.
With `CCc1cc(=O)n2[nH]c(C)c(-c3ccc(OC)cc3)c2n1`, the “hERG current change (%, negative = inhibition) at 10uM” value is listed as 1.39%.
In the case of `COc1ccccc1-c1nnc(SCC(=O)NC2CCS(=O)(=O)C2)n1N` (centres unmarked) it was 9.79%.
For the compound `CCC(=O)Nc1ccc(NC(=O)c2cccc(OC)c2)nc1`, the “hERG current change (%, negative = inhibition) at 10uM” value came out at 1.09%.
In the case of `O=C(Sc1nnc(-c2ccccc2)o1)N1c2ccccc2Sc2ccccc21` it was 4.95%.
In the case of `O=C(CCc1ccccc1)NC1(Cc2ccccc2)CCN(CCc2cccs2)C1=O` (centres unmarked), the “hERG current change (%, negative = inhibition) at 10uM” value is -20.4%.
`Cn1cccc1CC(=O)N/N=C\c1c2ccccc2cc2ccccc12`: the “hERG current change (%, negative = inhibition) at 10uM” value is -3.92%.
With `CC(NC(=O)C(=O)N/N=C\c1ccc([N+](=O)[O-])cc1)c1ccccc1` (centres unmarked) the figure was 18.2%.
For the compound `CCn1c(C(O)c2cc(OC)c(OC)c(OC)c2)nc2ccccc21` (centres unmarked), the “hERG current change (%, negative = inhibition) at 10uM” value is reported as 2.8%.
Take `C/C(CC(=O)Nc1ccc(N(C)C)cc1)=N\NC(=O)Cc1csc(N)n1`: the “hERG current change (%, negative = inhibition) at 10uM” value was found to be 0.601%.

Source of the values: PMC4336329 (PLoS ONE, 2015).
